Results: PubChem BioAssay AID1030 (National Center for Advancing Translational Sciences (NCATS), 2008)
Among all 220,000 compounds or so, about 16,000 (7.3%) were called active. The shares of active, inactive and inconclusive entries below differ from those in the screen. The call rests on the fitted dose curve; in most records, active means well fitted inhibition curve with a large enough effect (not every such curve was filed as active); inconclusive means small, poorly fitted or top-dose-only effect, or another doubt; inactive means no such curve, though single readings can be large or run the other way. No potency is given beside an inconclusive call; the fits are too rough.

What follows are compounds tested against Aldehyde dehydrogenase 1A1 (Homo sapiens) (UniProt P00352) (assay: qHTS Assay for Inhibitors of Aldehyde Dehydrogenase 1 (ALDH1A1)). Conditions: Purified ALDH1A1, NADH fluorescence, propionaldehyde substrate; series mostly up to 75.3 µM; activity, negative = inhibition: at the top concentration.
Potency means the concentration at half of the fitted maximal effect; tags describe the fitted curve by direction and shape.
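Wherever activity, negative = inhibition is given: plate controls were no enzyme wells and a reference inhibitor.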

Chain of UniProt P00352 (P00352 whole entry, looked up): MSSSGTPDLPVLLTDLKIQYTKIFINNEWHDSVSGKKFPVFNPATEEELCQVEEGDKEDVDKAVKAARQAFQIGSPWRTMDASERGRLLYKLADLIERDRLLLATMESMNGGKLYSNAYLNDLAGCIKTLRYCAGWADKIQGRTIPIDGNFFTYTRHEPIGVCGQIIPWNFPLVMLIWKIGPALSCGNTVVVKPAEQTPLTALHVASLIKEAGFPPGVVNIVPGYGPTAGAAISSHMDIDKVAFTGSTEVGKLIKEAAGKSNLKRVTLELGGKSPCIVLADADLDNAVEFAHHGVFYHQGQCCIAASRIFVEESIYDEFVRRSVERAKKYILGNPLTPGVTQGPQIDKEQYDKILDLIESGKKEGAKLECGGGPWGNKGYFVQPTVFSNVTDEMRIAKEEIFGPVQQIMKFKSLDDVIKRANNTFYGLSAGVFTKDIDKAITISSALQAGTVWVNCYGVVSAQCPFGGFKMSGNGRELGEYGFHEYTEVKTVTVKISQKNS

Compound	Potency	activity, negative = inhibition
N#CC1=C(N)SC(N)=C(C#N)C1CCC1CCCCC1	active: 14.1 µM	
CC(=O)Nc1ccc(C(=S)NCc2ccco2)cc1	inconclusive [inhibitor, single point]	
CCC(=O)c1ccc(N2CCN(C(=O)c3cc([N+](=O)[O-])ccc3F)CC2)c(F)c1		inactive: -10.1%
c1ccc(CNc2ncnc3scc(-c4cccs4)c23)nc1	inconclusive [inhibitor, full curve]	
C=C(C(=O)O)[C@@H]1CC[C@@]2(C)CCC[C@](C)(O)[C@@H]2C1		inactive: 5.01%
CCOC(=O)N1CCN(C(=O)C2CCN(Cc3ccc(O)c(OCC)c3)CC2)CC1	inconclusive [inhibitor, single point]	
CCC1C/C(=C/c2ccco2)C(=O)/C(=C/c2ccco2)C1 (stereo unspecified)	inconclusive [inhibitor, single point]	
COc1cccc(Cn2nnc(C(=O)Nc3ccc(C)cc3)c2N)c1	inconclusive [inhibitor, single point]	
CCN(Cc1cc(=O)n2cc(Cl)c(C)c(Cl)c2n1)Cc1nc2ccccc2c(=O)[nH]1	inconclusive [inhibitor, single point]	
CN(Cc1ccccc1)S(=O)(=O)c1ccc(NS(=O)(=O)Cc2ccccc2)cc1	inconclusive [inhibitor, partial curve, poor fit]	
N#Cc1c(Nc2ccc(F)cc2)sc(C(=O)c2ccc(F)cc2)c1N	active: 22.4 µM	
CCCc1cc2c(=O)c(-c3nc4ccccc4s3)c(COCC(=O)O)oc2cc1O	inconclusive [inhibitor, partial curve]	
O=C1CN(C(=O)COC(=O)COc2ccc3c(c2)CCC3)c2ccccc2N1	inconclusive [inhibitor, single point]	
Cc1cc(/C=C/C(=O)O)c(C)n1-c1ccc(Cl)cc1		inactive: -8.06%
COC(=O)CNC(=O)c1cn(CC(C)C)c(=O)c2cc(OC)c(OC)cc12	inconclusive [inhibitor, partial curve]	
COc1ccc(C(C)=O)cc1COc1ccc(F)cc1	inconclusive [inhibitor, single point]	
CN1CCN(c2ccc(NC(=O)CSc3ccccc3)cc2F)CC1		inactive: 4.12%
CC(=O)OC(C(=O)NC1CCCCC1)c1ccncc1 (stereo unspecified)		inactive: 9.71%
COc1ccnc(N=CNOCc2ccc(F)cc2Cl)c1C#N		inactive: 5.32%
COc1ccc(C(=O)/C=C/N(C)C)cc1	active: 7.94 µM	
CC1=C(C(=O)OCc2ccccc2)C(c2ccc(Cl)cc2Cl)NC(=O)N1CCCCCC(=O)O (stereo unspecified)	inconclusive [inhibitor, single point]	
